{
  "source": "patent US20090118161A1",
  "about": "(BAYLOR COLLEGE OF MEDICINE, published 2009)",
  "key": {"[1]": {"target": "T1, platelet glycoprotein Ibα on immobilized fixed platelets (UniProt P07359 17-652, limits assumed)", "T1 construct": "whole, on cells; On platelets as part of the GPIb/IX complex; blood came from human donors; also called GPIbα; platelet GPIbα", "assay": "increasing A1 on immobilized fixed platelets, anti-His detection; half-maximal binding"}, "[2]": {"target": "T2, recombinant VWF-A2 domain polypeptide (amino acids G1481-R1668) (human, UniProt P04275 1481-1668)", "T2 construct": "Expressed in E. coli as a fusion protein with a His tag at the N terminus; monomeric on SDS-PAGE; also called A2 protein; VWF-A2 protein; not shown: N-terminal His tag from the vector", "assay": "ELISA, increasing A1 on immobilized A2 polypeptide, CR-1 detection; half-maximal binding"}},
  "data": [
    {"binder": "recombinant VWF-A1 domain polypeptide ([…]) (other, range […]; Expressed in E. coli with an N-terminal His tag; also called A1 polypeptide; A1 protein; not shown: N-terminal His tag from the vector) not shown", "values": [
      {"measurement": "EC50", "setting": "[1]", "value": "~40", "unit": "nM"},
      {"measurement": "EC50", "setting": "[2]", "value": "~50", "unit": "nM"}
    ]}
  ]
}
